We go through two molecules from article PMC3688683, “The N-Terminal Domains of Vps3 and Vps8 Are Critical for Localization and Function of the CORVET Tethering Complex on Endosomes” (PLoS ONE, 2013).

Results are given in words; binding and its absence hold for the method and conditions named. Some entries that bind do so weakly or less than the wild type.

The experiment addresses T1, Vps21 (yeast two-hybrid bait) (yeast) (UniProt P36017).
T1 sequence: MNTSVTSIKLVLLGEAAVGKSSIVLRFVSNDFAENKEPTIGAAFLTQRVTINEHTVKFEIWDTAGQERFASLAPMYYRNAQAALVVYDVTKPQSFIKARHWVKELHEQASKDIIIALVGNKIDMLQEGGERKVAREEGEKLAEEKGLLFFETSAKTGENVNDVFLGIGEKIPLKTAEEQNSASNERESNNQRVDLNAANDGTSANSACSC
Put plainly: two-hybrid; Vps21 as bait, Vps8 constructs as preys (vectors pACT2 and pFBT9) in strain PJ69-4A; growth on TDO (-Leu -Trp -His) and QDO (also -Ade) plates; QDO strong, TDO only weak interaction.

B1: Vps8ΔN (yeast two-hybrid prey) (domain or fragment, UniProt P39702 451-1274)
chain: CPLANLLKLDNNTEERTKQLMEPFYNLSLAALRFLIKKDNADYNRVYQLLMVVVRVLQQSSKKLDSIPSLDVFLEQGLEFFELKDNAVYFEVVANIVAQGSVTSISPVLFRSIIDYYAKEENLKVIEDLIIMLNPTTLDVDLAVKLCQKYNLFDLLIYIWNKIFDDYQTPVVDLIYRISNQSEKCVIFNGPQVPPETTIFDYVTYILTGRQYPQNLSISPSDKCSKIQRELSAFIFSGFSIKWPSNSNHKLYICENPEEEPAFPYFHLLLKSNPSRFLAMLNEVFEASLFNDDNDMVASVGEAELVSRQYVIDLLLDAMKDTGNSDNIRVLVAIFIATSISKYPQFIKVSNQALDCVVNTICSSRVQGIYEISQIALESLLPYYHSRTTENFILELKEKNFNKVLFHIYKSENKYASALSLILETKDIEKEYNTDIVSITDYILKKCPPGSLECGKVTEVIETNFDLLLSRIGIEKCVTIFSDFDYNLHQEILEVKNEETQQKYLDKLFSTPNINNKVDKRLRNLHIELNCKYKSKREMILWLNGTVLSNAESLQILDLLNQDSNFEAAAIIHERLESFNLAVRDLLSFIEQCLNEGKTNISTLLESLRRAFDDCNSAGTEKKSCWILLITFLITLYGKYPSHDERKDLCNKLLQEAFLGLVRSKSSSQKDSGGEFWEIMSSVLEHQDVILMKVQDLKQLLLNVFNTYKLERSLSELIQKIIEDSSQDLVQQYRKFLSEGWSIHTDDCEICGKKIWGAGLDPLLFLAWENVQRHQDMISVDLKTPLVIFKCHHGFHQTCLENLAQKPDEYSCLICQTESNPKIV
B1: the binding entry was “binds weakly”.

B2: Vps8, wild type (yeast two-hybrid prey) (protein, UniProt P39702 1-1274)
chain: MEQNGLDHDSRSSIDTTINDTQKTFLEFRSYTQLSEKLASSSSYTAPPLNEDGPKGVASAVSQGSESVVSWTTLTHVYSILGAYGGPTCLYPTATYFLMGTSKGCVLIFNYNEHLQTILVPTLSEDPSIHSIRSPVKSIVICSDGTHVAASYETGNICIWNLNVGYRVKPTSEPTNGMTPTPALPAVLHIDDHVNKEITGLDFFGARHTALIVSDRTGKVSLYNGYRRGFWQLVYNSKKILDVNSSKEKLIRSKLSPLISREKISTNLLSVLTTTHFALILLSPHVSLMFQETVEPSVQNSLVVNSSISWTQNCSRVAYSVNNKISVISISSSDFNVQSASHSPEFAESILSIQWIDQLLLGVLTISHQFLVLHPQHDFKILLRLDFLIHDLMIPPNKYFVISRRSFYLLTNYSFKIGKFVSWSDITLRHILKGDYLGALEFIESLLQPYCPLANLLKLDNNTEERTKQLMEPFYNLSLAALRFLIKKDNADYNRVYQLLMVVVRVLQQSSKKLDSIPSLDVFLEQGLEFFELKDNAVYFEVVANIVAQGSVTSISPVLFRSIIDYYAKEENLKVIEDLIIMLNPTTLDVDLAVKLCQKYNLFDLLIYIWNKIFDDYQTPVVDLIYRISNQSEKCVIFNGPQVPPETTIFDYVTYILTGRQYPQNLSISPSDKCSKIQRELSAFIFSGFSIKWPSNSNHKLYICENPEEEPAFPYFHLLLKSNPSRFLAMLNEVFEASLFNDDNDMVASVGEAELVSRQYVIDLLLDAMKDTGNSDNIRVLVAIFIATSISKYPQFIKVSNQALDCVVNTICSSRVQGIYEISQIALESLLPYYHSRTTENFILELKEKNFNKVLFHIYKSENKYASALSLILETKDIEKEYNTDIVSITDYILKKCPPGSLECGKVTEVIETNFDLLLSRIGIEKCVTIFSDFDYNLHQEILEVKNEETQQKYLDKLFSTPNINNKVDKRLRNLHIELNCKYKSKREMILWLNGTVLSNAESLQILDLLNQDSNFEAAAIIHERLESFNLAVRDLLSFIEQCLNEGKTNISTLLESLRRAFDDCNSAGTEKKSCWILLITFLITLYGKYPSHDERKDLCNKLLQEAFLGLVRSKSSSQKDSGGEFWEIMSSVLEHQDVILMKVQDLKQLLLNVFNTYKLERSLSELIQKIIEDSSQDLVQQYRKFLSEGWSIHTDDCEICGKKIWGAGLDPLLFLAWENVQRHQDMISVDLKTPLVIFKCHHGFHQTCLENLAQKPDEYSCLICQTESNPKIV
As for B2, the binding entry is on record as “binds”.
